# Reference: PubChem BioAssay AID652106 (National Center for Advancing Translational Sciences (NCATS), 2013)
# The whole screen tested about 370,000 compounds, of which about 500 (0.14%) were called active. The inconclusive results got no clear call from the source; some entries with a clear call stand among them for comparison. Calls follow the shape of the dose curve; as a rule, active = well fitted activation curve with a large enough effect; inconclusive = small, poorly fitted or top-dose-only effect; inactive = no such curve, though single readings can be large or run the other way. No potency is given beside an inconclusive call; the fits are too rough.
# Assay: qHTS of alpha-syn Inhibitors; also: nearly all actives have a fitted effect of over 65% in size; as to growth rescue (activation): % of control where 0% means no effect
# Conditions: Yeast expressing alpha-synuclein, BacTiter-Glo, 24 h; Potency: growth rescue unless noted; growth rescue (activation): at 46.1 µM (top of the series) unless noted
# Summary of the method: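 Rescue of yeast growth: cells expressing toxic alpha-synuclein, induced in galactose at OD600 0.02, incubated with compound 24 h at 30 C. ATP luminescence quantified growth; inhibitors of toxicity appear as activators.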
# Potency is read from the fitted curve at half-maximal effect; tags tell the direction and shape of the fitted curve.
Structure (SMILES),Potency,growth rescue (activation)
O=[N+]([O-])c1cc(C(F)(F)F)ccc1NN=C1CCCC1,"inconclusive [activator, single point]",
O=C(Nc1nc2ccccc2s1)C1CCCN1S(=O)(=O)c1ccc(Cl)cc1 (configuration not stated),,inactive: 19.4%
O=S(=O)(NCCSCc1ccc(Cl)c(Cl)c1)c1ccc2c(c1)OCCO2,"inconclusive [activator, partial curve]",
CCc1ccc2c(c1)NC(=O)C2(C)Cc1ccc(C(F)(F)F)o1 (configuration not stated),"inconclusive [activator, single point]",
COc1ccc(CNc2ncnc3nc[nH]c23)cc1,inactive,
O=c1oc(=S)oc2c1[C@H](c1ccc(Cl)cc1)O[C@H](C1CCCC1)C2,"inconclusive [activator, single point]",
CCCCSc1nc2sc3c(c2c(=O)[nH]1)CC(C)(CC)OC3 (configuration not stated),,inactive: -11.8%
CCOc1cc(/C=N/NC(=O)c2nn(C)cc2Br)ccc1OCc1ccccc1Cl,"inconclusive [activator, single point]",
OC(c1cccc(Cl)c1)c1nc(-c2ccc(F)c(Cl)c2)cs1 (configuration not stated),,inconclusive: -56.6% [activator]
COc1ccc2c(c1OC)C(=O)OC2,"inconclusive [activator, single point]",
O=C(CN1C(=O)C2(SCC(=O)N2c2ccc(F)c(F)c2)c2ccccc21)NCCc1ccccc1 (configuration not stated),"inconclusive [activator, single point]",
C=CCn1c(C)cc(C(=O)CSc2nnc(NCc3ccccc3)s2)c1C,,inactive: 1.57%
Cc1nc(S(=O)(=O)c2ccc(Cl)cc2)nc2c1CCC2,"inconclusive [activator, single point]",
CCN1CCN(S(=O)(=O)c2ccc(Oc3ccccc3OC)cc2)CC1,,inactive: 3.1%
Cc1ccc(-c2cc3nc(-c4ccccc4)cc(NCCCO)n3n2)cc1,"inconclusive [activator, single point]",
CCc1nnc(NC(=O)c2nc(S(=O)(=O)Cc3ccccc3)ncc2Cl)s1,,inactive: 6.63%
COc1ccc(C(=O)NC2(C(F)(F)F)C(=O)NC(C)=C2C#N)cc1 (configuration not stated),"inconclusive [activator, single point]",
Cc1ccc(S(=O)(=O)NCc2ccc(C(=O)NCCCN3CCN(C)CC3)cc2)cc1,"inconclusive [activator, single point]",
O=C(Nc1ccccn1)c1cccc(S(=O)(=O)N2CCCc3ccccc32)c1,,inactive: 9.12% [at 1.84 µM]
CCC1CCCN1Cn1cnc2c([nH]c3ccc(OC)cc32)c1=O (configuration not stated),,inactive: -0.0057%
CC(C)CC(=O)Nc1ncc([N+](=O)[O-])s1,"inconclusive [activator, single point]",
CC1CCc2nn(CC(=O)NCc3ccc(F)cc3)cc2C1 (configuration not stated),"inconclusive [activator, single point]",
CCOC(=O)CSC1=NC(=O)/C(=C\c2ccc(OC(C)=O)cc2)S1,,inactive: -9.39%
CCOc1ccccc1NC(=O)Nn1cnnc1,"inconclusive [activator, single point]",

Structure (SMILES),Potency,growth rescue (activation)
Cc1ccc2[nH]cc(CCCN3C(=O)c4ccccc4C3=O)c2c1,"inconclusive [activator, single point]",
COc1ccc(Cc2c(-c3ccccc3)nc3cc(C)c(Br)c(C)n23)c(C)c1,"inconclusive [activator, single point]",
O=C1C=CC[C@H](/C=C/C[C@@H](O)C[C@H](O)CCc2ccccc2)O1,"inconclusive [activator, single point]",
Cc1ccc(S(=O)(=O)Oc2ccccc2[N+](=O)[O-])cc1,"inconclusive [activator, single point]",
O=C(C=Cc1ccccc1)c1cc(Br)ccc1O,"inconclusive [activator, single point]",
CCCC(CC)Sc1nc2c([nH]1)c(=S)n(C)c(=O)n2C (configuration not stated),,inactive: 6.52%
C=CCc1c(C)nc2c(OC)cccc2c1Cl,,inactive: 25.8%
COc1cccc(NC(=O)CN(C)C(=O)/C=C/c2cn(-c3ccccc3)nc2-c2ccc(OC)c(OC)c2)c1,,inactive: 1.21%
O=C(O)c1ccccc1C=NN=C1c2ccccc2-c2ccccc21,"inconclusive [activator, single point]",
Cc1ccc(OCC(=O)NNC(=O)c2ccc(F)c(S(=O)(=O)N3CCOCC3)c2)cc1C,"inconclusive [activator, single point]",
O=c1[nH]c(-c2ccccn2)nc(C(F)(F)F)c1Br,,inconclusive: -63.9% [activator]
Cc1cc(NCc2ccccn2)nc2ccccc12,,inactive: -3.86%
CC(C)(C)c1csc(NNC(=O)c2ccc(Br)cc2)n1,"inconclusive [activator, single point]",
CCCCCCN1C[C@@H](O)[C@H](n2cc(COC(=O)c3ccccc3)nn2)C[C@@H]1c1ccc(C)cc1,"inconclusive [activator, single point]",
O=C(CNC(=O)OCc1ccccc1)Oc1cc2oc(=O)cc(-c3ccccc3)c2cc1Cl,"inconclusive [activator, full curve]",
Cc1c(C)c2c(OCC(=O)N[C@@H](Cc3ccccc3)C(=O)O)cc3c(c2oc1=O)CCC(C)(C)O3,"inconclusive [activator, single point]",
CCN(CC(=O)Nc1c(F)cccc1F)C(=O)c1ccc(S(=O)(=O)N(CC)c2ccccc2)cc1,"inconclusive [activator, single point]",
Cc1ccc(Nc2nnc(SCC(=O)Nc3cccc(S(=O)(=O)N4CCCCC4)c3)s2)cc1,"inconclusive [activator, single point]",
Cc1nc(C)c(CCNS(=O)(=O)c2ccc(F)cc2)s1,,inactive: -8.75%
CC(=O)NCCNc1nc2cc(-c3ccccc3CO)sc2c(=O)n1C,"inconclusive [activator, single point]",
CC(C)(C)C(=O)Nc1nnc(SCC(=O)Nc2nccs2)s1,,inactive: 2.38%
C#CCNC(=O)C1=C[C@H](c2coc3ccccc3c2=O)C[C@H](OCc2ccc(CO)cc2)O1,"inconclusive [activator, single point]",
Cn1c(=O)n(CC(=O)NCC2CCCO2)c(=O)c2c3c(sc21)CCCC3 (configuration not stated),"inconclusive [activator, single point]",
C[C@@H]1CN([C@H](C)CO)C(=O)CCCn2nncc2CO[C@H]1CN(C)C(=O)C1CC1,"inconclusive [activator, single point]",

Structure (SMILES),Potency,growth rescue (activation)
CC(=O)NC(c1ccc(Cl)cc1)c1ccc2cccnc2c1O (configuration not stated),"inconclusive [activator, single point]",
CC(C)CCC1(C)NC(=O)N(CC(=O)Nc2ccc3c(c2)OCCO3)C1=O (configuration not stated),"inconclusive [activator, single point]",
CN1CCN(S(=O)(=O)c2cccc(C(=O)Nc3nccs3)c2)CC1,"inconclusive [activator, single point]",
COc1ccc(-n2ncc3c2CC(C)(C)CC3NC(=O)c2ccc(OC)o2)cc1 (configuration not stated),,inactive: 10.3%
COc1ccc(C(C)=O)cc1CN1C(=O)NC2(CCCCC2C)C1=O (configuration not stated),"inconclusive [activator, single point]",
COc1ccc(Cl)cc1NC(=S)Nc1cccnc1,"inconclusive [activator, single point]",
CSc1ccccc1OCc1cc(C(=O)NCc2csc(C(C)C)n2)no1,,inactive: -2.34%
CCOc1ccccc1Oc1cn[nH]c1-c1ccc(OC)cc1O,"inconclusive [activator, partial curve]",
CC1(C(=O)Nc2ccc3c(c2)OCCO3)CCC(=O)N1C1CC1 (configuration not stated),"inconclusive [activator, single point]",
COc1ccc(C(=O)OCn2nnc3ccccc3c2=O)cc1,"inconclusive [activator, single point]",
COc1ccc2oc(=O)c(/C(C)=N/Nc3nc(-c4cc(C)ccc4C)cs3)cc2c1,,inactive: -0.102%
O=C(CNC(=O)c1ccccc1)NCC(=O)OCC(=O)c1ccc2ccccc2c1,,inactive: 6%
CS(=O)(=O)Cc1cc(Sc2ccccc2)nc(-c2ccncc2)n1,"inconclusive [activator, single point]",
CC(=O)Nc1ncnc2c1c(-c1ccc(Cl)cc1)nn2C(C)(C)C,active: 3.55 µM,
CCN(CC)CCC(C)OC(c1ccccc1)c1ccccc1 (configuration not stated),"inconclusive [activator, single point]",
Cc1ccc(Nc2ncnc3c2cnn3-c2ccccc2)c(C)c1,,inactive: 3.21%
CCCCCC(=O)NC(=S)NNC(=O)CC,"inconclusive [activator, partial curve]",
COc1cccc(-n2cnnn2)c1,,inactive: 0.329%
Nc1nc2ccc(Cl)cc2o1,"inconclusive [activator, single point]",
COc1ccc(C(=O)NN=C2CCCC2)cc1OC,"inconclusive [activator, partial curve]",
OC(c1ccc(F)cc1)c1nc(-c2ccc(Cl)cc2)cs1 (configuration not stated),"inconclusive [activator, partial curve]",
O=C(COc1ccc(Br)cc1Cl)c1ccc[nH]1,,inactive: 12.2%
Cc1ccc(-c2nnn(CC(=O)N3CCCCC3)n2)c(-n2cnnn2)c1,"inconclusive [activator, single point]",
CC(=NO)c1ccc2c(c1)C(=NO)c1ccccc1-2,,inactive: 8.68%
